PubChem BioAssay AID686970 (National Center for Advancing Translational Sciences (NCATS), 2013)
In all, about 360,000 compounds went through this assay and about 6,000 (1.7%) were called active. Inconclusive means that the source gave no clear call. Such entries were picked first, then a sample of the others. Calls come from the whole dose curve; as a rule, active = well fitted cell-killing curve with a large enough effect; inconclusive = small, poorly fitted or top-dose-only effect, or effect the other way; inactive = flat fitted curve, though single readings scatter. No potency is given beside an inconclusive call; the fits are too rough.

Assay: qHTS for induction of synthetic lethality in tumor cells producing 2HG: qHTS for the HT-1080-NT fibrosarcoma cell line;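 note: NT is the 2HG producing partner of a matched IDH1 knockdown line; nearly all actives have a fitted effect of over 55% in size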;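 for activity, negative = less viability: 0% = DMSO-treated cells and -100% = media-only wells without cells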
Conditions: HT-1080-NT fibrosarcoma viability, CellTiter-Glo ATP luminescence, 48 h; activity, negative = less viability: at 46.1 µM (top of the series) unless noted
Summary of the method: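 Read-out is CellTiter-Glo luminescence after 10 minutes at room temperature, following 48 hours' compound treatment of HT-1080-NT cells (750 cells/well, RPMI, 5% FBS, 37 degrees C).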
Potency is the fitted concentration of half-maximal effect; tags give direction and shape of the fitted curve.

SMILES | Potency | activity, negative = less viability
COc1ccc(NC(=O)c2c3c(nc4ccccc24)CCN(Cc2ccccc2)C3)c(OC)c1 | inactive | 
c1ccc(COc2ccc(OCCCN3CCCC3)cc2)cc1 | inactive | 
Cc1oc(-c2ccc(Cl)cc2)nc1CS(=O)CC(=O)NCCCN1CC(C)CC(C)C1 (centres undefined) | active: 16.4 µM | 
CCN(CC)CCNCC1C(=O)O[C@@H]2C[C@@]3(C)CCC[C@H](C)C3=C[C@H]12 (some centres undefined) | inconclusive [cytotoxic, single point] | 
COc1ccc(CC(=O)Nc2ccc3c(C)cc(=O)oc3c2)cc1OC | inconclusive [rising, partial curve] | 
COc1ccc(S(=O)(=O)N2C(=O)/C(=C3\SC(N)=NC3=O)c3ccccc32)cc1 | inconclusive [rising, partial curve, poor fit] | 
CN(C)/C=N/C1=C(C#N)C(c2cccs2)c2ccc3ccccc3c2O1 (centres undefined) | active: 7.31 µM | 
CCN(c1ccccc1)S(=O)(=O)c1ccc(Cl)c(NC(=O)CN(C)C2CCN(C)CC2)c1 | inconclusive [cytotoxic, single point] | 
CCOC(=O)CCC(=O)Nc1ccc([N+](=O)[O-])cc1C | inconclusive [rising, single point] | 
Cc1ccc(-c2nc3cc(NS(=O)(=O)c4ccc(C)cc4)ccc3o2)cc1 | inconclusive [cytotoxic, single point] | 
COC(=O)c1ccc(/C=C/C(=O)c2cccc(OC)c2)cc1 | inconclusive [cytotoxic, single point] | 
Cc1cc(C)c(C)c(S(=O)(=O)N2CCN(CC(=O)Nc3ccc([N+](=O)[O-])cc3)CC2)c1C | inactive | 
O=C(N[C@@H](Cc1ccccc1)C(=O)O)c1c(F)c(F)c(F)c(F)c1F | inactive | 
COc1cccc(NC(=O)c2ccccc2Oc2ccccc2)c1 | inactive | 
Cc1ccc(N=Cc2nc(-c3ccco3)oc2O)cc1 | inactive | 
Cc1oc2cc3oc(=O)c4c(c3cc2c1C)CCC4 |  | inconclusive: 14.8%
COc1cccc(/C=C2\CCc3ccccc3C2=O)c1 | inconclusive [cytotoxic, single point] | 
O=C(Nc1nc(-c2ccccn2)cs1)c1ccc(-c2ccccc2F)o1 | inconclusive [cytotoxic, partial curve] | 
COc1ccc(-c2coc3c(C(=O)NCc4cccc(Cl)c4)cccc23)c(C)c1 |  | inconclusive: -31.5% [cytotoxic]
Cc1ccc(C2Oc3ccccc3C3=C2C(c2cccs2)n2ncnc2N3)cc1 (centres undefined) | active: 20.6 µM | 
Cc1ccccc1N1C(=O)c2ccccc2N2C(=O)c3ccccc3C12 (centres undefined) | inactive | 
COc1ccccc1-n1c(SCC(=O)Nc2ccc(NC(C)=O)cc2)nc2c([nH]c3ccccc32)c1=O | inconclusive [cytotoxic, partial curve] | 
CN1c2ccccc2-c2nc3ccccc3n2C1c1cccs1 (centres undefined) | inconclusive [cytotoxic, partial curve] | 

SMILES | Potency | activity, negative = less viability
O=C(Nc1ccc(Br)c2ccccc12)c1ccc2ccccc2c1O | inconclusive [cytotoxic, single point] | 
Cc1ccc2nc3n(c(=O)c2c1)-c1cc2ccccc2cc1C(=O)NC3Cc1ccccc1 (centres undefined) | inconclusive [cytotoxic, single point] | 
C=CCNC(=S)NNC(=O)c1cc(O)ccc1O | inactive | 
COc1ccc(-c2csc3nc(C)nc(N4CCC(C)CC4)c23)cc1OC | active: 18.4 µM | 
Cc1ccc(N(C(=O)c2snc(C(N)=O)c2N)C(C(=O)NCC2CCCO2)c2c[nH]c3ccccc23)cc1 (centres undefined) | inconclusive [cytotoxic, full curve] | 
O=C(Nc1ccccc1C(F)(F)F)c1ccc(CN2CCC(Cc3ccccc3)CC2)cc1 | active: 16.4 µM | 
Cc1cc(/C=C(\C#N)C(=O)Nc2ccccc2)c(C)n1-c1ccc2c(c1)OCO2 | inconclusive [cytotoxic, single point] | 
CCOC(=O)N1CCN(Cc2nc3cc(NC(=O)c4ccco4)ccc3n2CC)CC1 | inactive | 
COc1cc(/C=C(/C(=O)c2cccs2)c2nc3ccccc3[nH]2)cc(OC)c1O | inconclusive [cytotoxic, full curve] | 
O=C(C[n+]1ccc2ccccc2c1)c1ccc2ccc3ccccc3c2c1 | inconclusive [cytotoxic, partial curve] | 
CCN(CC)c1ccc(/C=N/NC(=O)c2cccc(S(=O)(=O)Nc3ccccc3OC)c2)c(O)c1 | inconclusive [cytotoxic, partial curve] | 
CCCS(=O)(=O)N1CCC(C(=O)NCCCN(CC)c2cccc(C)c2)CC1 | inactive | 
Cc1c(C(=O)NCC2CCCO2)oc2ccc3c(c12)C(=O)CC(C)(C)O3 (centres undefined) | inactive | 
Cc1cc(Br)cc2c(C(=O)Nc3c(C)n(C)n(-c4ccccc4)c3=O)cc(-c3cccs3)nc12 | inconclusive [cytotoxic, single point] | 
CCC(C)NCCOCCOc1ccc(C)cc1Br (centres undefined) | inconclusive [cytotoxic, single point] | 
CC(=O)c1ccccc1OCC(O)CN1CCN(CCN2C(=O)c3cccc4cccc(c34)C2=O)CC1 (centres undefined) | inconclusive [cytotoxic, single point] | 
Cc1cc(Nc2ccccc2)n(-c2ccccc2)n1 | inactive | 
CCc1nc2ccc(C(=O)NC(C)(C)C)cn2c1N(CC)Cc1cccc(Br)c1 |  | inconclusive: -41.4%
COc1cc(OC)cc(C(=O)Nc2ccc(N3CCN(C(=O)c4cccs4)CC3)cc2)c1 | inconclusive [cytotoxic, single point] | 
CC1(C(=O)NCc2cccs2)Cc2c(-c3cccc(C(F)(F)F)c3)ccnc2O1 (centres undefined) | active: 5.8 µM | 
CCCCC(=O)N(Cc1nc2sc(C)c(C)c2c(=O)[nH]1)C1CCCC1 | inconclusive [cytotoxic, single point] | 
C[C@@H]1C(c2cccc(Cl)c2)=NN(c2ccc(Br)cc2)[C@H]1C(=O)N1CCOC1=O | inconclusive [cytotoxic, single point] | 
Cc1ccc2c(=O)n3c(nc2c1)C(Cc1ccc(O)cc1)NC(=O)c1cc2ccccc2cc1-3 (centres undefined) | active: 5.17 µM | 

SMILES | Potency | activity, negative = less viability
Cc1oc2c(c1C(=O)N1CCC(C)CC1)C(=O)c1ccccc1C2=O | active: 20.6 µM | 
CCCCCC(=O)N1CC2(CC)CN(C(=O)CCCCC)CC(CC)(C1)C2=O | inactive | 
NC(=S)N=Nc1c(O)n(Cc2ccc(Br)cc2)c2ccccc12 | inconclusive [cytotoxic, partial curve] | 
CCn1cc(CNC(=O)c2cc(COc3ccc(F)cc3Cl)on2)cn1 | inconclusive [cytotoxic, single point] | 
COc1ccccc1C(=O)c1ccccc1C(=O)c1ccccc1 | inconclusive [cytotoxic, single point] | 
O=c1c2ccccc2nc(/C=C/c2c[nH]c3ccccc23)n1CCO | inconclusive [cytotoxic, partial curve] | 
CCOc1ccc(-c2[nH]ncc2-c2ccc(OC)c(OC)c2)c(O)c1 | active: 6.31 µM | 
CC(C)NS(=O)(=O)c1ccc(NCCCn2ccnc2)c([N+](=O)[O-])c1 | inconclusive [cytotoxic, partial curve, poor fit] | 
Cc1cc(C(=O)CN2C(=O)C(=O)N(C3CCCC3)C2=O)c(C)n1CCc1ccccc1 | inactive | 
Cc1cccc(NS(=O)(=O)c2ccc(C(=O)NCC(c3ccccc3)N(C)C)cc2)c1C (centres undefined) | inconclusive [cytotoxic, partial curve] | 
COC(=O)c1[nH]c2c(c1C)C(=O)CC(c1cccc(OC)c1)C2 (centres undefined) | active: 0.731 µM | 
COc1cccc(/C=N/n2nnnc2N)c1OCc1ccccc1Cl | inconclusive [cytotoxic, single point] | 
O=c1[nH]c(SCc2n[nH]c(=S)n2-c2ccccc2)nc2sc3c(c12)CCC3 | inconclusive [cytotoxic, single point] | 
Cc1ccc(C)n1-n1cnc2sc(-c3ccccc3)cc2c1=O | inconclusive [cytotoxic, partial curve] | 
Cc1ccc2nc(-c3cccc(-c4cccc(Cl)c4)c3)c(NCc3ccccc3)n2c1 | inconclusive [cytotoxic, single point] | 
Cc1cc2c(cc1C)CSC(c1ccccc1O)SC2 | inconclusive [cytotoxic, single point] | 
C[C@@]12CCC=C[C@H]1[C@H](c1ccc3ccccc3c1Br)N(Cc1ccccc1)C2=O | inconclusive [cytotoxic, partial curve] | 
CSc1ccc(CN(C)C(=O)c2cc(S(=O)(=O)NCc3ccccc3)ccc2C)cc1 | inconclusive [cytotoxic, single point] | 
CC(C)c1cccc(C(C)C)c1NC(=O)Cn1c(=O)cnc2ccccc21 | inactive | 
COc1ccc(NC(=O)COC(=O)CCCC2=NS(=O)(=O)c3ccccc3N2)cc1Cl | inconclusive [rising, single point] | 
CC1(C(=O)Nc2ccc3[nH]ncc3c2)CCN1C(=O)C/C=C/c1ccccc1 (centres undefined) | inactive | 
O=C(Nc1ccccc1)[C@@H]1CC=C[C@@H]2CCN(Cc3ccc(Cl)c(Cl)c3)C(=O)[C@@H]21 | inconclusive [cytotoxic, single point] | 
COc1cccc2sc(Nc3nc(-c4cc5ccccc5oc4=O)cs3)nc12 | active: 5.17 µM | 
